No constants are given. Whether binding was seen depends on the method and setting. For part of these data: In cells and extracts the contact can be indirect. Some results given as binding are weak or reduced against the parent protein; the word gives no strength. For part of these data: Tags and fused reporters may be left off the sequences shown.
Columns and labels:
[1] = biological target: T1, NSUN2 K692R (non-lactylatable), CRISPR/Cas9 knock-in at the endogenous locus of PANC-1 cells (human (endogenous in PANC-1)) (UniProt Q08J23); assay: co-IP; PANC-1 lysates in IP lysis buffer, antibody (NSUN2 antibody in Figure 3M) overnight at 4 °C, protein A/G magnetic beads, Western blot; cells with siNC, LDHA and/or LDHB siRNA, ddH2O or L-lactate; wild-type or NSUN2-K692 knock-in cells
T1 sequence: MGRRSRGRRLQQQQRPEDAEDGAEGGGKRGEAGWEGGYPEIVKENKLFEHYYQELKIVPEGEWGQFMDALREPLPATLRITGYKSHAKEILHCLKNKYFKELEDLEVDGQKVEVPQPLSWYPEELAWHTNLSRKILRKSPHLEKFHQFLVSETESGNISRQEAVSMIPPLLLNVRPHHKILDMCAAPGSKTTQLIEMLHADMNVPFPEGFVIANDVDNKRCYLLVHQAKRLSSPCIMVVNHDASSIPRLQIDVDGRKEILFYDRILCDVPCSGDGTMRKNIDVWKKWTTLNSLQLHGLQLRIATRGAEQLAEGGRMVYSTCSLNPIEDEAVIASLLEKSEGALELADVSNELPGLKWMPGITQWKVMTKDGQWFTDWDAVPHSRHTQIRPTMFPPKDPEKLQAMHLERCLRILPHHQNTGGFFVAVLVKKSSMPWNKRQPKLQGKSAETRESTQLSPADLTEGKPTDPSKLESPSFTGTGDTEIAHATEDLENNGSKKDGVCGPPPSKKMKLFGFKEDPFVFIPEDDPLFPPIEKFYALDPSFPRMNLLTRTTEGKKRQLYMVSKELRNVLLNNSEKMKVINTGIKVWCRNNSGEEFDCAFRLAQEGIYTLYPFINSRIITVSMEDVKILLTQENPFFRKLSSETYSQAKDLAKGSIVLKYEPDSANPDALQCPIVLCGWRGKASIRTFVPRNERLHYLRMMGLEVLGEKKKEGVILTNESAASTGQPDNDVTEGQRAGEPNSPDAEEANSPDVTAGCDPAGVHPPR

Protein sequences, listed by entry. Tags and fused reporters are not part of them.
UniProt Q9UNE7: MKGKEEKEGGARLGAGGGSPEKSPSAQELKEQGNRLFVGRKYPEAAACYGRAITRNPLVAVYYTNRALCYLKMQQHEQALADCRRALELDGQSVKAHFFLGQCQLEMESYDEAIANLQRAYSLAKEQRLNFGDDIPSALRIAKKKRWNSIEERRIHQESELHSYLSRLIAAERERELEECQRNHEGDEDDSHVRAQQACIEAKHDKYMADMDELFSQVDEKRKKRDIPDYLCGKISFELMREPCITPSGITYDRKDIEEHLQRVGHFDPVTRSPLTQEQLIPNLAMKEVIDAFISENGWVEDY

[2] = biological target: NSUN2 (NOP2/Sun RNA methyltransferase family member 2), wild type, in PANC-1 cells (human (endogenous in PANC-1)) (UniProt Q08J23); assay: as above
[3] = biological target: T2, GST-NSUN2 (501-767) (human) (UniProt Q08J23); assay: pull-down; in vitro translated STUB1 incubated with GST or GST-NSUN2 fragments; glutathione eluates and 15% input analysed by SDS-PAGE and immunoblot with anti-STUB1; only the target purified
T2 sequence: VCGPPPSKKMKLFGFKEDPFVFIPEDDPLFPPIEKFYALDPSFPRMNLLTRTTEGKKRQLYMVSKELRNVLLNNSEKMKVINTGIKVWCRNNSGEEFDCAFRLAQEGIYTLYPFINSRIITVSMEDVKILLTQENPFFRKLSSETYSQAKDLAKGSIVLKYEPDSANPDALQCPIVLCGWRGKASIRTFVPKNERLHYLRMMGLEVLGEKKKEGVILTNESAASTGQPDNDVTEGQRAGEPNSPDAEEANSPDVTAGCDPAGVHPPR

[4] = biological target: T3, GST-NSUN2 (251-500) (human) (UniProt Q08J23); assay: as above
T3 sequence: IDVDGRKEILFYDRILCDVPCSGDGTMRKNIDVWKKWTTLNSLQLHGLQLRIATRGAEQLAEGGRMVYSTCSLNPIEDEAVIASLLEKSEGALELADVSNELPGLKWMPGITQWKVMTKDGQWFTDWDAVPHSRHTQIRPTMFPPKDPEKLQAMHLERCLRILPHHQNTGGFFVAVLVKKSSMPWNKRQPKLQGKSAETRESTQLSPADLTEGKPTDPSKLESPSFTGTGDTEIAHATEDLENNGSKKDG

[5] = biological target: T4, GST-NSUN2 (1-250) (human) (UniProt Q08J23); assay: as above
T4 sequence: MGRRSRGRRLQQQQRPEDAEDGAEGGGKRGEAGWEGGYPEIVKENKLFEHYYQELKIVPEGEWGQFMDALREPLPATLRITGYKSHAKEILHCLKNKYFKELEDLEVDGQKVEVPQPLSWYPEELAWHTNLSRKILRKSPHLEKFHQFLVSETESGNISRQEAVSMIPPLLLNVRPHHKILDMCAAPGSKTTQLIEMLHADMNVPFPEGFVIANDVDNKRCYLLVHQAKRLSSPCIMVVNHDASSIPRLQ

[6] = biological target: NSUN2, purified protein of the GST pull-down (Figure 3N) (human) (UniProt Q08J23); assay: pull-down; GST pull-down with purified proteins; which protein carried GST is not stated; both purified

STUB1 (STIP1 homology and U-box containing protein 1), in PANC-1 cells (from UniProt Q9UNE7 1-303)
binding [1]: binds
binding [2]: binds

STUB1, in vitro translated (from UniProt Q9UNE7 1-303)
binding [3]: binds
binding [4]: no binding
binding [5]: no binding

STUB1, purified protein of the GST pull-down (Figure 3N) (from UniProt Q9UNE7 1-303)
binding [6]: binds

— PMC12680535
